{"source": "paper PMC4336329", "about": "(PLoS ONE, 2015)", "note": "About 14,000 (4.5%) of roughly 310,000 compounds showed an effect of 50% or more. Effects have a minus sign here. The list shows a part of the results.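 Note: peak tail current of the secondary pulse compared with the same well before compound.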", "data": [{"target": "human ether-à-go-go-related gene (hERG) potassium channel (human, UniProt Q12809)", "sequence (Q12809 whole entry, looked up)": "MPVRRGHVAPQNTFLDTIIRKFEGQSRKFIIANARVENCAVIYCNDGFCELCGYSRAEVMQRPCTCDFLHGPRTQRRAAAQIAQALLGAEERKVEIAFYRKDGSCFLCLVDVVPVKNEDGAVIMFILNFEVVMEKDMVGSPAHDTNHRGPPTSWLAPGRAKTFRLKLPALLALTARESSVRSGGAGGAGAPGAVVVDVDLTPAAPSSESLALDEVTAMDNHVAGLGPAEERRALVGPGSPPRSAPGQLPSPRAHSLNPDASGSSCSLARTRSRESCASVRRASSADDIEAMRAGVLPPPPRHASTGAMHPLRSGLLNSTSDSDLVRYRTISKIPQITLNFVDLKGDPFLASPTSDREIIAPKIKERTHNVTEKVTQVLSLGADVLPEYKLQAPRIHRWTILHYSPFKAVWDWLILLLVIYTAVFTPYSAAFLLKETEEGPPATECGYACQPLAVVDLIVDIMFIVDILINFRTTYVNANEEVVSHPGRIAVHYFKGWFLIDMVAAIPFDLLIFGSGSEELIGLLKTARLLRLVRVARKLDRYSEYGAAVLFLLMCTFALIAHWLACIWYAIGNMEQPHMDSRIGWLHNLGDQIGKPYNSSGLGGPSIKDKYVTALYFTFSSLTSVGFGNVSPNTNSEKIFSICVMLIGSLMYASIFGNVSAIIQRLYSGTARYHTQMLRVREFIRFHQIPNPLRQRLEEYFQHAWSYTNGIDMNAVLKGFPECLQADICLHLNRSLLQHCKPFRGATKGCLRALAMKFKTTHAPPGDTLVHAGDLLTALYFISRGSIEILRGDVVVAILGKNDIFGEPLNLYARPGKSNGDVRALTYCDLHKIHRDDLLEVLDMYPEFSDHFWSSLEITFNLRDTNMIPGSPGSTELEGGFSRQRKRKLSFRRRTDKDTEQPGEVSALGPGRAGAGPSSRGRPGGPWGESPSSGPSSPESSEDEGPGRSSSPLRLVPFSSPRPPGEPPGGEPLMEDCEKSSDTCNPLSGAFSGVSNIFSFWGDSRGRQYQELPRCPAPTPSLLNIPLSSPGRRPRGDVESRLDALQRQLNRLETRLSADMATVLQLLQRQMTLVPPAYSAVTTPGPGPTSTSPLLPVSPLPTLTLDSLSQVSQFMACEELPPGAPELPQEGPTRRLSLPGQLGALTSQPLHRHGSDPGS", "assay": "primary screen, population patch clamp on CHO cells stably expressing hERG", "units": {"hERG current change (%, negative = inhibition) at 10uM": "%"}, "values": [{"smiles": "O=C(C1COc2ccccc2O1)N1CCN(Cc2ccc3c(c2)OCO3)CC1", "note": "(centres unmarked)", "hERG current change (%, negative = inhibition) at 10uM": -36.7}, {"smiles": "CC(=O)c1ccc(Sc2ccccn2)c([N+](=O)[O-])c1", "hERG current change (%, negative = inhibition) at 10uM": 2.26}, {"smiles": "COc1cccc(-c2cc(C(F)(F)F)n3nc(C(=O)N4CCCCC4c4cccnc4)cc3n2)c1", "note": "(centres unmarked)", "hERG current change (%, negative = inhibition) at 10uM": -23.1}, {"smiles": "O=C(COC(=O)CCN1C(=O)c2ccccc2C1=O)Nc1ccc(S(=O)(=O)N2CCCC2)cc1", "hERG current change (%, negative = inhibition) at 10uM": -21.9}, {"smiles": "O=[N+]([O-])c1ncccc1Oc1nc(-c2cccnc2)nc2ccccc12", "hERG current change (%, negative = inhibition) at 10uM": 15.3}, {"smiles": "Cc1ccc(N2CC(C(=O)N3CCCCC3)CC2=O)cc1C", "note": "(centres unmarked)", "hERG current change (%, negative = inhibition) at 10uM": -21.2}, {"smiles": "CC1CCCC(C)N1C(=O)COC(=O)C1CCN(S(=O)(=O)c2c(Cl)cccc2Cl)CC1", "note": "(centres unmarked)", "hERG current change (%, negative = inhibition) at 10uM": -30.1}, {"smiles": "Cc1cc(OCC(=O)Nc2ccncc2)cc(C)c1Cl", "hERG current change (%, negative = inhibition) at 10uM": 6.51}, {"smiles": "O=C(Nc1cccc(NC(=O)C2CCCO2)c1)c1ccco1", "note": "(centres unmarked)", "hERG current change (%, negative = inhibition) at 10uM": 24.2}, {"smiles": "COc1ccc(Oc2c(C)oc3c(CN4CCOCC4)c(O)ccc3c2=O)cc1", "hERG current change (%, negative = inhibition) at 10uM": 11.5}, {"smiles": "CC(=O)N[C@@H]1c2c(ccc3ccccc23)OC[C@@H]1COC(C)=O", "hERG current change (%, negative = inhibition) at 10uM": -41.8}, {"smiles": "CSc1nc2ccccc2n1Cc1c(Cl)cccc1Cl", "hERG current change (%, negative = inhibition) at 10uM": 4.46}, {"smiles": "CCOP(=O)(OCC)c1nc(/C=C/c2ccccc2)oc1NCc1ccccc1", "hERG current change (%, negative = inhibition) at 10uM": 5.07}, {"smiles": "COc1ccc(OC)c(CN(CCN2CCOCC2)C(=O)Nc2cccc(Cl)c2)c1", "hERG current change (%, negative = inhibition) at 10uM": -22}, {"smiles": "O=C(COCc1cc(-c2ccc3c(c2)OCO3)on1)N1CCCCC1", "hERG current change (%, negative = inhibition) at 10uM": 4.66}, {"smiles": "C=CCn1cc(C(=O)OC)c(=O)c2cc(S(=O)(=O)N(CC)CC)ccc21", "hERG current change (%, negative = inhibition) at 10uM": -7.93}, {"smiles": "Cc1ccc(O)c(C(=O)CC(=O)c2ccccc2Cl)c1", "hERG current change (%, negative = inhibition) at 10uM": 36.2}, {"smiles": "COC(=O)C1=C(C)Nc2nc3ccccc3n2C1c1ccccc1F", "note": "(centres unmarked)", "hERG current change (%, negative = inhibition) at 10uM": 10.9}, {"smiles": "O=C(CCn1c(=O)oc2ccccc21)n1c(=O)oc2ccccc21", "hERG current change (%, negative = inhibition) at 10uM": 20.7}, {"smiles": "Cc1cccc(-n2nnnc2SCC(=O)c2cc(C)n(Cc3ccco3)c2C)c1", "hERG current change (%, negative = inhibition) at 10uM": -11.3}, {"smiles": "COc1ccc(C)c2sc(N(CCN(C)C)C(=O)/C=C/c3cccs3)nc12.Cl", "hERG current change (%, negative = inhibition) at 10uM": 5.89}, {"smiles": "C=C(C)c1cccc(C(C)(C)NC(=O)N2CCN(CC)CC2)c1", "hERG current change (%, negative = inhibition) at 10uM": 7.13}, {"smiles": "Cc1ccnc2c1ccc1c(C)ccnc12.O", "hERG current change (%, negative = inhibition) at 10uM": 9.2}, {"smiles": "Cc1ccc(N(CC(=O)NC(C)(C)C)C(=O)CNC(=O)c2cccs2)c(C)c1", "hERG current change (%, negative = inhibition) at 10uM": 9.15}, {"smiles": "CCOc1cccc(-c2nc3cc(C)ccc3o2)c1", "hERG current change (%, negative = inhibition) at 10uM": 22.2}, {"smiles": "CC(=O)Nc1cccc(NC(=O)c2c(-c3c(Cl)cccc3Cl)noc2C)c1", "hERG current change (%, negative = inhibition) at 10uM": -14.9}, {"smiles": "Cc1ccn2c(NC3CCCCC3)c(C)nc2c1", "hERG current change (%, negative = inhibition) at 10uM": -20}, {"smiles": "Nc1nonc1C(=O)NCCNS(=O)(=O)c1ccc(Br)cc1", "hERG current change (%, negative = inhibition) at 10uM": -28}, {"smiles": "CCCCCN(C(=O)CCC(=O)OCc1ccccc1F)c1c(N)n(CCCC)c(=O)[nH]c1=O", "hERG current change (%, negative = inhibition) at 10uM": 12.9}, {"smiles": "CCOc1ccc(C2c3cc(OC)c(OC)cc3CC(=O)N2c2ccccc2)cc1", "note": "(centres unmarked)", "hERG current change (%, negative = inhibition) at 10uM": -26.5}, {"smiles": "COc1ccc(/C=N/NC(=O)CNC(=O)c2ccc(S(=O)(=O)N3CCOCC3)cc2)cc1OC", "hERG current change (%, negative = inhibition) at 10uM": -9.23}, {"smiles": "CC(NC(=O)c1ccccc1O)c1ccccc1", "note": "(centres unmarked)", "hERG current change (%, negative = inhibition) at 10uM": -21}, {"smiles": "CCn1cnc2cc(NCc3cccs3)ccc21", "hERG current change (%, negative = inhibition) at 10uM": -15.9}, {"smiles": "CN(c1ccc(C(=O)Nc2ccc(Cl)cn2)cc1)S(=O)(=O)c1ccccc1", "hERG current change (%, negative = inhibition) at 10uM": -28.2}, {"smiles": "Cc1ccccc1/C=C1\\OC(=O)c2ccccc21", "hERG current change (%, negative = inhibition) at 10uM": -4.37}, {"smiles": "N/C(=N\\OC(=O)Cc1cccs1)c1ccc(Cl)cc1", "hERG current change (%, negative = inhibition) at 10uM": 9.19}, {"smiles": "O=C(Nc1nc2ccc([N+](=O)[O-])cc2s1)c1ccco1", "hERG current change (%, negative = inhibition) at 10uM": 39.5}, {"smiles": "O=C(COc1ccc([N+](=O)[O-])cc1)NNC(=O)c1cccs1", "hERG current change (%, negative = inhibition) at 10uM": -11.6}, {"smiles": "COCCN(C(=O)COC(=O)c1cccnc1Cl)c1c(N)n(Cc2ccccc2)c(=O)[nH]c1=O", "hERG current change (%, negative = inhibition) at 10uM": 10.2}, {"smiles": "O=C(Nc1ccccc1F)c1cnccn1", "hERG current change (%, negative = inhibition) at 10uM": 23.1}, {"smiles": "Cc1ccccc1/C=C/c1nc2ccccc2c(=O)n1Cc1ccccc1", "hERG current change (%, negative = inhibition) at 10uM": -3.27}, {"smiles": "O=c1c(-c2cc3ccccc3o2)[n+]([O-])c2ccccc2n1OCc1ccccn1", "hERG current change (%, negative = inhibition) at 10uM": -15.4}, {"smiles": "CCCc1nnc(NC(=O)CCC(=O)N2CCN(Cc3ccc(OC)c(F)c3)CC2)s1", "hERG current change (%, negative = inhibition) at 10uM": -28.3}, {"smiles": "O=C(c1ccccc1)N1CCN(c2ncccn2)CC1", "hERG current change (%, negative = inhibition) at 10uM": 17.6}]}]}
